The campaign covered roughly 52,000 compounds. About 4,300 (8.3%) were called active. Rule as the data show it: active = survival mostly below about 52% (no sharp cut-off); inactive = mostly above about 56%. This is one part of the list.
Each molecule was assayed on DeltatarO mutant (assay: growth inhibition of S. aureus wild type versus tarO mutant, primary screen, teichoic acid synthesis inhibitors, RN4220, OD600 (AID 463173)). Details: OD600, 18 h, hits give low values, screened at 18.75 µg/mL (by protocol).

| Compound | survival |
| --- | --- |
| CCOc1ccc(NC(=O)NC(C)c2c(-n3cccc3)sc(C)c2C)cc1 (configuration not stated) | inactive: 60% |
| O=C(Cn1nc(N2CCN(c3ccccc3)CC2)ccc1=O)NCc1cccc(Cl)c1 | inactive: 109% |
| Cc1cccc(OCCCCn2nnc3sc4c(c3c2=O)CCC(C)C4)c1 (configuration not stated) | inactive: 76% |
| CCOc1ccccc1CNC(=O)CN1C(=O)CCCc2ccccc21 | inactive: 86% |
| N#Cc1c(SCC(=O)Nc2nccs2)nc(N2CCOCC2)c2c1CCCC2 | inactive: 112% |
| Cc1ccc(-n2ncc3c(NCCc4ccccc4)ncnc32)cc1C | inactive: 115% |
| Cc1ccc(C)c(CN2CCC(CNC(=O)Cn3ncc4c([nH]c5ccccc54)c3=O)CC2)c1 | inactive: 70% |
| CCn1c2ccccc2c2nnc(N3CCN(c4cccc(C)c4C)CC3)nc21 | inactive: 77% |
| O=C(Cc1cccs1)NC1CC(=O)N(c2ccccc2)C1 (configuration not stated) | inactive: 88% |
| CCc1cccc(C)c1NC(=O)CN1CCCN(Cc2ccc(C)cc2)S1(=O)=O | active: 8% |
| COc1ccc(-c2c(C)nn3c(C(F)(F)F)cc(-c4ccc(Br)cc4)nc23)cc1 | inactive: 88% |
| Cc1cc(C)n2c(Nc3c(C)cccc3C)c(-c3ccsc3)nc2n1 | inactive: 72% |
| CCOC(=O)c1cc(-c2ccc(F)cc2)n(CC(=O)NC2CCCCC2)c1C | inactive: 66% |
| O=C(COc1ccccc1)Nc1ccc(C(=O)OCc2cc(=O)n3nc(C4CC4)sc3n2)cc1 | inactive: 76% |
| COc1ccc(-n2c(/C=C/c3cc(OC)c(OC)cc3OC)nc3cc4ccccc4cc3c2=O)cc1Cl | inactive: 115% |
| CCN(CC)CCNC(=O)C1CCN(S(=O)(=O)c2c(C)noc2/C=C/c2ccccc2F)CC1 | inactive: 73% |
| Cc1ccc(OCCSc2nc3ccc(NC(=O)COc4ccc(F)cc4)cc3s2)cc1 | inactive: 90% |
| O=C(O)Cn1c2ccccc2c2n[nH]c(=S)nc21 | inactive: 108% |
| CCOc1ccc(C(=O)Nc2ccc(-c3nc4cc(CC)ccc4o3)cc2)cc1 | inactive: 61% |
| O=C(c1cc2c(=O)[nH]c3ccccc3c2s1)N1CCN(c2ccc(F)cc2)CC1 | inactive: 51% |
| CCOc1ccc(-c2ccc(NS(=O)(=O)c3cc(C)c(C)cc3C)cc2)nn1 | inactive: 94% |
| Cc1ccccc1CN1CCc2nc(Nc3ccc4c(c3)OCCO4)ncc2C1 | inactive: 86% |
| CCCOc1ccc(/C=N/NC(=O)CN2CCCCC2)cc1 | inactive: 98% |

| Compound | survival |
| --- | --- |
| CCN(C(=O)COc1cc(=O)n(C)c2ccccc12)c1cccc(C(F)(F)F)c1 | inactive: 57% |
| Cc1coc2c(C)c3oc(=O)c(CC(=O)N4CCCCC4)c(C)c3cc12 | inactive: 79% |
| Cc1cc(C)cc(-n2c(SCC(=O)Nc3nnc(C)s3)nc3c([nH]c4ccccc43)c2=O)c1 | inactive: 68% |
| COC(=O)c1ccc(NC(=O)Cc2coc3cc(C)ccc23)cc1 | inactive: 91% |
| COc1ccc(-c2nc3nc(C)cc(Nc4ccc(C(C)=O)cc4)n3n2)cc1 | inactive: 54% |
| COc1ccccc1NC(=O)Cn1c(=O)n(Cc2ccccc2)c(=O)c2ccccc21 | inactive: 75% |
| CCN(CC)C(=O)CSc1nc2ccccc2c(=O)n1CC | inactive: 62% |
| CCn1c2ccccc2c2cc(C3C(C#N)=C(N)Oc4n[nH]c(C(C)C)c43)ccc21 (configuration not stated) | active: 3% |
| COc1cccc(NC(=O)c2oc3ccccc3c2NC(=O)C23CC4CC(CC(C4)C2)C3)c1 | inactive: 75% |
| COc1ccc(CN2COc3ccc4c(C)cc(=O)oc4c3C2)cc1 | inactive: 73% |
| COc1cccc2c1Oc1nc(-c3ccccc3)nc(SCC(=O)N3CCCCC3)c1C2 | inactive: 100% |
| O=C(CCn1c(=O)c2cccn2c2ccc(F)cc21)NCCc1ccccc1Cl | inactive: 52% |
| COC(=O)c1ccc(NC(=O)Nc2nnc(N(C)C3CCCCC3)s2)cc1 | inactive: 82% |
| CCCOc1ccc(Nc2nc(SC)ncc2C(=O)OCC)cc1 | inactive: 65% |
| COc1ccccc1CNC(=O)Cn1c(-c2cccs2)cc2cc(F)ccc21 | inactive: 70% |
| CCOc1ccccc1NC(=O)Cn1nc2c3cc(F)ccc3n(Cc3cccc(C)c3)cc-2c1=O | inactive: 72% |
| O=C(CCS(=O)(=O)c1cc2c3c(c1)CCN3C(=O)CC2)NCc1ccc(Cl)cc1 | inactive: 71% |
| COc1ccc(/C=C/c2nc(C#N)c(NC3CCCCC3)o2)cc1OC | active: 36% |
| COC(=O)CSc1ccc2nnc(CCNS(=O)(=O)c3ccc(C)cc3)n2n1 | inactive: 96% |
| CCOC(=O)C1=C(CN2CCN(c3ccccc3F)CC2)NC(=O)NC1c1ccc(OC)cc1 (configuration not stated) | inactive: 70% |
| CCc1cccc(C)c1Nc1c(-c2cccc(O)c2)nc2cnccn12 | inactive: 62% |
| Cc1ccc(CNC(=O)CCc2c(C)nn(-c3ccc(N4CCCC4)nn3)c2C)cc1 | inactive: 112% |
| CCc1cc(S(=O)(=O)n2ccnc2)ccc1OC | inactive: 65% |

| Compound | survival |
| --- | --- |
| COc1ccc(N2CCN(C(=O)Cc3noc4ccc(C)cc34)CC2)cc1 | active: 42% |
| CCc1ccc(NC(=O)Cn2ccn(-c3cccc(Cl)c3)c(=O)c2=O)cc1 | inactive: 61% |
| COc1ccc(C(=O)N2CCC(c3ccncc3)CC2)cc1OC | active: -5% |
| O=C(CN1C2=NCCCN2c2ccccc21)c1cccs1 | inactive: 81% |
| Cc1ccc(CN2CCc3nc(N4CCN(C)CC4)ncc3C2)cc1 | inactive: 80% |
| COc1cccc(NC(=O)CCc2nc(-c3cc(OC)c(OC)c(OC)c3)no2)c1 | inactive: 73% |
| COc1ccc(CCNC(=O)c2cc(-c3ccc(Cl)cc3)on2)cc1OC | inactive: 64% |
| Cc1ccc(C)c(NC(=O)C(=O)NCCc2csc(-c3cccc(F)c3)n2)c1 | inactive: 84% |
| Cn1c(=O)cc(SCC(=O)Nc2cccc(C#N)c2)c2ccc(Cl)cc21 | inactive: 84% |
| CCOC(=O)c1ccc(NC(=O)c2cc3c(=O)n(C)c4ccccc4c3n2C)cc1 | inactive: 71% |
| COc1cc2c(C(=O)N3CCN(c4ccc(C)cc4)C(C)C3)cn(CC(C)C)c(=O)c2cc1OC (configuration not stated) | inactive: 47% |
| Cc1nc2ccccn2c(=O)c1NC(=O)c1ccccc1Cl | inactive: 131% |
| Cc1oc2c(c1C(=O)Nc1ccc(Cl)cc1F)C1=NCCN1C=N2 | inactive: 86% |
| COc1ccc(Cl)cc1C(=O)NCC(c1ccc(N(C)C)cc1)N1CCOCC1 (configuration not stated) | inactive: 92% |
| Cc1cccc(C)c1OCC(=O)N(Cc1ccc(Cl)cc1)CC1CCCO1 (configuration not stated) | inactive: 79% |
| COc1ccc(Nc2nnc(-c3ccc(C)c(S(=O)(=O)N4CCN(C)CC4)c3)c3ccccc23)cc1 | inactive: 89% |
| Cc1nc2sccn2c(=O)c1S(=O)(=O)NCc1ccccc1 | inactive: 77% |
| CCOc1ccccc1C1CC(=O)NC(C)=C1C(=O)OCc1ccc(C)cc1 (configuration not stated) | inactive: 84% |
| COc1cc2c(cc1OC)C(COc1ccc3c(C)cc(=O)oc3c1)N(C(=O)c1ccc(C)c(C)c1)CC2 (configuration not stated) | inactive: 74% |
| COC(=O)c1ccc(OC)c(CN2CCCN(Cc3ccc(C)cc3)S2(=O)=O)c1 | active: 20% |
| COc1ccc(S(=O)(=O)NCCc2cn3ccsc3n2)cc1OC | active: -1% |
| CCOc1ccc(N(Cc2cc3cc(C)ccc3[nH]c2=O)C(=O)c2cccc(Cl)c2)cc1 | inactive: 86% |
| O=C(O)CCCC1OC(CCCC(=O)O)OC(CCCC(=O)O)O1 (configuration not stated) | inactive: 84% |

| Compound | survival |
| --- | --- |
| CCOC(=O)C1CCN(CCC(=O)Nc2ccccc2Cl)CC1 | inactive: 165% |
| CC(C)c1nn2c(=O)cc(COC(=O)c3ccccc3NC(=O)c3cccs3)nc2s1 | inactive: 78% |
| Cn1c(=O)c2c(nc(NCCc3ccccc3)n2Cc2ccc(Cl)c(Cl)c2)n(C)c1=O | inactive: 57% |
| CCCN(Cc1cccs1)C(=O)Nc1ccccc1C | inactive: 79% |
| CC1CCCN(c2csc3ccccc3c2=O)C1 (configuration not stated) | inactive: 69% |
| Cc1ccc(C(=O)N2c3ncnn3C3(CCCCC3)[C@@H]3CCCC[C@@H]32)cc1 | inactive: 86% |
| Cc1ccc2oc(=O)c(-c3nc4ccc(C)cc4[nH]3)cc2c1 | inactive: 106% |
| COc1ccc(OC)c(CNC(=O)CCc2c(C)nc3c(c2C)c(=O)n(C)c(=O)n3C)c1 | inactive: 89% |
| COc1cccc(OCC(=N)N)c1 | inactive: 85% |
| COc1ccc(Cl)cc1NC(=O)CSc1nnc(C)n2c1cc1sccc12 | inactive: 68% |
| CCCOc1ccc(CNC(=O)C(C)n2nc(C)n3c(cc4occc43)c2=O)cc1 (configuration not stated) | inactive: 57% |
| CC(C)(C)Sc1cc(C(=O)O)sc1C(=O)O | inactive: 96% |
| COc1ccc(NC(=O)CC2C(=O)N(c3ccc(OC)cc3)C(=O)N2C2CCCCC2)cc1 (configuration not stated) | inactive: 83% |
| Cc1c(Cl)cccc1-n1c(SCC(=O)NCc2ccccc2)nc2n[nH]c(C)c2c1=N | inactive: 126% |
| COc1cccc(C(=O)N2CC(=O)Nc3ccc(C)cc3C2c2ccc(F)cc2)c1OC (configuration not stated) | inactive: 175% |
| Cc1ccc(Nc2cc(=O)[nH]c(=O)[nH]2)cc1C | inactive: 72% |
| Cc1ccc2[nH]c(CSc3nnc(NC(=O)COc4ccccc4C)s3)cc(=O)c2c1 | inactive: 117% |
| COc1ccc(Nc2cc(C(=O)NCCCN(C)c3ccccc3)c3ccccc3n2)c(OC)c1 | inactive: 96% |
| CCCOCc1cc(CN2CCN(c3cccc(Cl)c3)CC2)c(O)c2ncccc12 | inactive: 63% |
| Cc1cccc(C)c1NC(=O)c1c(C)oc2c1C1=NCCN1C=N2 | inactive: 89% |
| COc1ccc(CC(=O)Nc2ccc(-c3nc4ccccc4s3)cc2Cl)cc1OC | inactive: 57% |
| Cc1cccc(CCNC(=O)c2ccc3c(c2)nc2n3CCOC2)c1 | inactive: 76% |
| COC(=O)c1ccc(NC(=O)c2cc(S(=O)(=O)N3CCC(C)CC3)cn2C)cc1 | inactive: 135% |
